We go through 115 sequences from the BET-seq Pho4 binding data (Le et al. 2018).

Some of the results follow. These are noisy estimates, calculated here from bound and input reads.

The assay has as its target T1, Pho4 (S. cerevisiae) (UniProt P07270).
T1 sequence: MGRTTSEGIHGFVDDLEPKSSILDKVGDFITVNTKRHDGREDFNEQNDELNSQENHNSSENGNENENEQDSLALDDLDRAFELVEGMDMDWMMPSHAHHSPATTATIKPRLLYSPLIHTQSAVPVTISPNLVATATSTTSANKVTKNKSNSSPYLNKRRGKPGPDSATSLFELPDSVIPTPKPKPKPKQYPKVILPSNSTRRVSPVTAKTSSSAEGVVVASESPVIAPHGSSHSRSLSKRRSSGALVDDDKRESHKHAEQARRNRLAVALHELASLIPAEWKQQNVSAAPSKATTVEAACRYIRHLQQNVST
The assay can be described thus: relative binding free energy (BET-seq); higher = weaker binding. The following applies: reference: library average.
AATTTCACGTGATCGG: the “relative binding free energy” value is 0.22 kcal/mol.
In the case of AGAATCACGTGAGTGG, the “relative binding free energy” value amounted to 0.28 kcal/mol.
The value for GGTGACACGTGGAGTT was 0.13 kcal/mol.
Take TCTTTCACGTGTGTGT: the “relative binding free energy” value was 0.31 kcal/mol.
Turning to GTCTGCACGTGGGTAT, the “relative binding free energy” value is -0.13 kcal/mol.
The value for GCGGTCACGTGTAGTG was 0.09 kcal/mol.
For the sequence TTGTCCACGTGAATGG, the “relative binding free energy” value came out at 0.22 kcal/mol.
Regarding AGGGGCACGTGAGGTC, the “relative binding free energy” value stood at 0.1 kcal/mol.
For GTCTTCACGTGGAATT, the “relative binding free energy” value came to 0.37 kcal/mol.
As for TATTTCACGTGTTGTT, the “relative binding free energy” value is 0.26 kcal/mol.
As to TTATTCACGTGTCTGT, the “relative binding free energy” value came to 0.3 kcal/mol.
Take GCCTGCACGTGGGCGG: the “relative binding free energy” value was -0.22 kcal/mol.
On to TGCAACACGTGGGGGT, for which the “relative binding free energy” value is -0.11 kcal/mol.
On to GTTAACACGTGTAATA, for which the “relative binding free energy” value stood at 0.14 kcal/mol.
As for AGTGTCACGTGCCAGT, the “relative binding free energy” value stood at 0.08 kcal/mol.
AGTGACACGTGGATGT: the “relative binding free energy” value is 0.05 kcal/mol.
On to GGTCACACGTGATCGT, for which the “relative binding free energy” value came out at 0.36 kcal/mol.
For the sequence GGCTCCACGTGTGTGG, the “relative binding free energy” value was -0.08 kcal/mol.
Turning to GGTGGCACGTGGTCAT, the “relative binding free energy” value is -0.17 kcal/mol.
On to GGTTCCACGTGGTGCG, for which the “relative binding free energy” value was -0.08 kcal/mol.
As to TTAGTCACGTGTACTG, the “relative binding free energy” value was 0.19 kcal/mol.
Turning to TGTATCACGTGCGTCG, the “relative binding free energy” value is -0.08 kcal/mol.
Take TGGATCACGTGGAAGT: the “relative binding free energy” value worked out at 0.25 kcal/mol.
As for CTTAGCACGTGATGTA, the “relative binding free energy” value stood at 0.02 kcal/mol.
Regarding ACTGTCACGTGTGGTC, the “relative binding free energy” value was 0.11 kcal/mol.
For GGTTACACGTGTTTCG, the “relative binding free energy” value worked out at 0.11 kcal/mol.
For the sequence TGCTGCACGTGTTAGG, the “relative binding free energy” value stood at 0.03 kcal/mol.
On to GGTGGCACGTGGGAAT, for which the “relative binding free energy” value was 0.05 kcal/mol.
As for AAAGTCACGTGGTCTG, the “relative binding free energy” value was -0.05 kcal/mol.
As to GGGTACACGTGCTGGC, the “relative binding free energy” value was found to be 0.07 kcal/mol.
In the case of GGGCGCACGTGTCTGT, the “relative binding free energy” value is -0.11 kcal/mol.
As for TTGGTCACGTGGGGGG, the “relative binding free energy” value was 0.02 kcal/mol.
For the sequence AAGGACACGTGTGGTG, the “relative binding free energy” value was 0.02 kcal/mol.
The value for TTTTGCACGTGGAACA was 0 kcal/mol; that for TGGGTCACGTGGGCCG was -0.09 kcal/mol; that for ATAAACACGTGGTTTA was -0.15 kcal/mol.
GAAATCACGTGTGTTG: the “relative binding free energy” value amounted to 0.28 kcal/mol.
TGGTACACGTGGATTG: the “relative binding free energy” value came out at 0.12 kcal/mol.
The value for CGGGACACGTGTGGTC was 0.09 kcal/mol; that for GGAAGCACGTGTCGAG was 0.01 kcal/mol.
Take ATGTCCACGTGGTGTC: the “relative binding free energy” value came out at 0.03 kcal/mol.
The value for TGATTCACGTGGCCGT was 0.34 kcal/mol; that for CTATTCACGTGTCGGT was 0.35 kcal/mol.
With AATGCCACGTGTGGGA, the “relative binding free energy” value turned out to be 0.14 kcal/mol.
As to GCTGGCACGTGAGGGT, the “relative binding free energy” value amounted to 0.22 kcal/mol.
Consider TCATTCACGTGATTGA, for which the “relative binding free energy” value was 0.34 kcal/mol.
Take AGTATCACGTGGCGAG: the “relative binding free energy” value came to 0.19 kcal/mol.
The value for AGCGTCACGTGCTAGT was 0.05 kcal/mol; that for ATTTACACGTGTGCAG was 0.14 kcal/mol.
Regarding TGATTCACGTGATGTT, the “relative binding free energy” value stood at 0.3 kcal/mol.
In the case of GGGATCACGTGGATAT, the “relative binding free energy” value turned out to be 0.19 kcal/mol.
Consider TCATTCACGTGATGTA, for which the “relative binding free energy” value was 0.25 kcal/mol.
Regarding TTAGACACGTGCTTAT, the “relative binding free energy” value came out at 0.01 kcal/mol.
For the sequence TTGATCACGTGATTGA, the “relative binding free energy” value turned out to be 0.33 kcal/mol.
As to GACGTCACGTGGTATG, the “relative binding free energy” value was determined as 0.16 kcal/mol.
Regarding GCGGTCACGTGGATAG, the “relative binding free energy” value amounted to 0.11 kcal/mol.
CTGTCCACGTGAGGTG: the “relative binding free energy” value is 0.25 kcal/mol.
As to GTGCCCACGTGGGTGA, the “relative binding free energy” value was -0.19 kcal/mol.
The value for TGTTCCACGTGGTGTA was -0.02 kcal/mol.
Consider CTGTGCACGTGGGATA, for which the “relative binding free energy” value is -0.31 kcal/mol.
The value for AGGTGCACGTGTTACG was 0.05 kcal/mol; that for GGCTTCACGTGGGCGT was 0.28 kcal/mol; that for TGTAGCACGTGTCGTC was 0.02 kcal/mol.
Take TAGGTCACGTGGGTAC: the “relative binding free energy” value came to 0.08 kcal/mol.
For the sequence TTAGACACGTGAATTT, the “relative binding free energy” value was found to be 0.31 kcal/mol.
The value for AATGACACGTGGGTAA was -0.16 kcal/mol.
Turning to GCATTCACGTGTGTGT, the “relative binding free energy” value was found to be 0.28 kcal/mol.
As for GTGAACACGTGGTTCT, the “relative binding free energy” value stood at 0.12 kcal/mol.
The value for AGGTACACGTGGCATT was -0.04 kcal/mol.
The value for TTACCCACGTGGTTTG was -0.07 kcal/mol; that for CGCTTCACGTGGGGTC was 0.23 kcal/mol.
As for TAACACACGTGGAGGT, the “relative binding free energy” value was 0.12 kcal/mol.
The value for GTAGACACGTGTGGTA was -0.01 kcal/mol.
For the sequence GTAGTCACGTGGCGGT, the “relative binding free energy” value amounted to 0.04 kcal/mol.
Regarding TGTTGCACGTGCGGGT, the “relative binding free energy” value amounted to 0.05 kcal/mol.
Regarding TTAGTCACGTGCTTAG, the “relative binding free energy” value was 0.03 kcal/mol.
The value for CGATTCACGTGGTGTA was 0.13 kcal/mol; that for TCTTACACGTGATGTT was 0.32 kcal/mol; that for AGGATCACGTGAGTGA was 0.24 kcal/mol.
Regarding TAAGACACGTGTAATG, the “relative binding free energy” value came to 0.12 kcal/mol.
Regarding GGCTACACGTGGCGGG, the “relative binding free energy” value came to 0.12 kcal/mol.
The value for TTAGGCACGTGGTAGT was -0.11 kcal/mol; that for TTTGTCACGTGATTCA was 0.18 kcal/mol; that for GTGAGCACGTGGCTTA was -0.16 kcal/mol.
Consider CTTTACACGTGTGGAG, for which the “relative binding free energy” value was 0.19 kcal/mol.
Turning to TACAGCACGTGGTGAG, the “relative binding free energy” value is -0.12 kcal/mol.
For GTGTTCACGTGGGGAG, the “relative binding free energy” value came to 0.19 kcal/mol.
Turning to TAGTTCACGTGTGCTA, the “relative binding free energy” value is 0.31 kcal/mol.
The value for TTGTCCACGTGTAGAG was -0.01 kcal/mol.
The value for GGGTACACGTGAGGAT was 0.38 kcal/mol; that for GATGACACGTGGATGG was 0.01 kcal/mol.
On to GGTAGCACGTGTAGAG, for which the “relative binding free energy” value was 0.01 kcal/mol.
With TTATACACGTGTGTCA, the “relative binding free energy” value is -0.07 kcal/mol.
For AGGGCCACGTGAGAGG, the “relative binding free energy” value worked out at 0.18 kcal/mol.
As for ATTTTCACGTGGATCT, the “relative binding free energy” value is 0.17 kcal/mol.
The value for CGGTGCACGTGCCGTT was 0.04 kcal/mol; that for TTTTGCACGTGTTGTA was 0.03 kcal/mol.
Turning to TAAGTCACGTGGCTTA, the “relative binding free energy” value was found to be 0.06 kcal/mol.
The value for AATATCACGTGTATGT was 0.12 kcal/mol; that for AAGCGCACGTGAGTTT was 0.21 kcal/mol.
Regarding GGGAGCACGTGCCGTG, the “relative binding free energy” value was -0.15 kcal/mol.
As to AGGTGCACGTGGTGGG, the “relative binding free energy” value was -0.09 kcal/mol.
The value for CAGGGCACGTGGGTCG was -0.25 kcal/mol; that for TTCGGCACGTGATATT was -0.04 kcal/mol; that for CGGGCCACGTGATGTT was 0.18 kcal/mol.
The value for GGGTACACGTGTGCGG was 0.1 kcal/mol; that for CGTGGCACGTGGGAGT was -0.18 kcal/mol.
AACGACACGTGTTGTT: the “relative binding free energy” value came to 0.09 kcal/mol.
On to TGTGACACGTGTGTCG, for which the “relative binding free energy” value was -0.05 kcal/mol.
As to AAAGGCACGTGTATTG, the “relative binding free energy” value is -0.12 kcal/mol.
For the sequence GAGGTCACGTGGTTCA, the “relative binding free energy” value was found to be 0.05 kcal/mol.
For the sequence GGCTTCACGTGTTAAG, the “relative binding free energy” value turned out to be 0.33 kcal/mol.
As to CGGGTCACGTGTTTAA, the “relative binding free energy” value turned out to be 0.04 kcal/mol.
The value for TGTTCCACGTGTTTGG was 0.07 kcal/mol.
The value for GGTGACACGTGTAGAA was 0.1 kcal/mol.
